# Assay results: the supplement of paper PMC4166925
# ± gives the standard deviation of the averaged measurements. Whole data set: some 33,000 sequences, median “E-score (dimensionless, -0.5 to 0.5)” near -0.049, cut for the highest 2% near 0.37. The list shows a part of the results.
# Tested on: T1, PmTbr T-box DNA-binding domain (GST fusion)
# T1 sequence: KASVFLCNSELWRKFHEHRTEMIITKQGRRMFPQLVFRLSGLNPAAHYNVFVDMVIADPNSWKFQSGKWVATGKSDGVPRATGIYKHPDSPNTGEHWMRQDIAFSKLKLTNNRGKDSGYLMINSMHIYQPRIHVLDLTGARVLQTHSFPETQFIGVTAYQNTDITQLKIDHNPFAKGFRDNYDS
# Assay: PBM E-score of 8-mer (E-score (dimensionless, -0.5 to 0.5)); Tbr is Tbrain of the sea star Patiria miniata (Pm) or the sea urchin Strongylocentrotus purpuratus (Sp); higher = stronger binding preference; most listed sequences are background and not binding sites
# Settings: the construct has about 5 more residues each side
# Summary of the method: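 Each ungapped 8-mer received an enrichment E-score from the Universal PBM Analysis Suite, averaged over duplicate arrays. The proteins were Tbr T-box DNA-binding domains, covering the whole T-box plus about five flanking residues, fused to GST and expressed in BL21 E. coli at 20 °C before glutathione affinity purification. Universal Agilent oligonucleotide arrays were made double-stranded by primer extension and incubated with 200 nM protein in PBS (pH 7.5). The arrays were then scanned and quantified, and every 8-mer was scored from probe intensities.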
row,Sequence,PBM E-score of 8-mer
1,GTTGTGTA,-0.0353 ± 0.064
2,CAAGAAAG,-0.23 ± 0.064
3,CCACCCCC,0.00912 ± 0.024
4,CTTGTATA,-0.0775 ± 0.0045
5,CCAATCAC,0.181 ± 0.046
6,TCTAACAA,0.118 ± 0.035
7,TCCCGGCA,-0.0694 ± 0.0015
8,AGGAACCA,-0.14 ± 0.15
9,AGTACTGC,-0.06064 ± 0.00031
10,ATGTGCTG,0.1768 ± 0.001
11,GTCTGTGA,0.0211 ± 0.036
12,ACACGGCT,0.131 ± 0.061
13,ATACCAAC,0.128 ± 0.028
14,AATTGCTG,-0.0855 ± 0.015
15,GCCATGAA,-0.108 ± 0.039
16,CATACGCG,0.0461 ± 0.029
17,CCCTTGCA,0.0511 ± 0.049
18,GGAGACGA,-0.201 ± 0.0054
19,GTCAGACA,-0.1 ± 0.0071
20,ATGCGGCC,-0.113 ± 0.1
21,CGGCCACC,-0.0449 ± 0.038
22,TAACCCCA,-0.215 ± 0.026

row,Sequence,PBM E-score of 8-mer
1,GCATCGAC,0.0377 ± 0.0069
2,CCAATGAC,0.0413 ± 0.041
3,CCAGGCGA,0.0665 ± 0.017
4,ATCAGCTG,-0.0117 ± 0.0022
5,GATCGTTA,0.0692 ± 0.034
6,TCCTAAAA,-0.216 ± 0.029
7,CACCAGAA,0.211 ± 0.005
8,AGGACACA,0.0438 ± 0.012
9,GATGACGA,0.0952 ± 0.014
10,CTTCCGAA,-0.127 ± 0.0066
11,CATTCCAA,-0.184 ± 0.021
12,CGCCAGAA,0.0252 ± 0.02
13,CTAGAAGA,-0.198 ± 0.085
14,AAGCTCCA,-0.2848 ± 0.00034
15,ACCGGCCC,-0.265 ± 0.0091
16,TTAGGAAA,-0.208 ± 0.04
17,CGGGTATC,-0.127 ± 0.032
18,GCGGTCGA,0.082 ± 0.038
19,TGGGGCAA,-0.138 ± 0.041
20,AGGAATAC,-0.278 ± 0.082
21,CATAAAGC,-0.206 ± 0.057
22,ATACACAG,-0.0706 ± 0.021

row,Sequence,PBM E-score of 8-mer
1,GGGTTATA,-0.0445 ± 0.021
2,ATATTTAG,-0.0478 ± 0.012
3,GATCCGGA,-0.0726 ± 0.05
4,AATTTCGC,0.3262 ± 0.0031
5,ATACGGCG,-0.0155 ± 0.015
6,ATAGCATC,0.0443 ± 0.049
7,ATAAACAA,-0.0987 ± 0.12
8,AGTTTGTG,0.0706 ± 0.0084
9,CTCATGAA,-0.0984 ± 0.015
10,CAGGGGCA,-0.36 ± 0.043
11,CTCCTTCA,-0.164 ± 0.033
12,AGGGATAT,-0.238 ± 0.052
13,GTCAAACA,-0.0272 ± 0.074
14,CCCATGGC,-0.121 ± 0.0038
15,AATTTGCA,0.11 ± 0.08
16,GCGTAACA,0.116 ± 0.016
17,CCGTATCC,-0.134 ± 0.028
18,CATGTGCC,0.126 ± 0.062
19,ATCCACGG,-0.244 ± 0.0051
20,GTCCCGTA,-0.34 ± 0.065
21,CACACTAC,0.323 ± 0.014
22,AATTTAAC,0.0896 ± 0.053

row,Sequence,PBM E-score of 8-mer
1,GTAGCATA,-0.016 ± 0.0069
2,TTAAAAAA,-0.117 ± 0.0036
3,GTAAGGAA,-0.0321 ± 0.098
4,CGAGCGAG,0.00852 ± 0.057
5,CGTAATAC,-0.208 ± 0.025
6,CCGCTGGA,-0.12 ± 0.038
7,ACCCCGTG,0.157 ± 0.055
8,ATTATTCG,-0.0471 ± 0.044
9,CTAATAAG,-0.0081 ± 0.031
10,ACCTGCAT,0.0692 ± 0.0092
11,ATCCTCAT,-0.181 ± 0.048
12,AGGCAGTC,-0.183 ± 0.031
13,GGTCCGCA,-0.0241 ± 0.056
14,CCTTCTCC,-0.0679 ± 0.015
15,CCAACGTC,-0.107 ± 0.0055
16,CGACACGA,0.183 ± 0.071
17,AACGAAGC,-0.154 ± 0.017
18,CTCAATTA,-0.0829 ± 0.032
19,ACTAGCAT,0.152 ± 0.039
20,ACATATTC,0.24 ± 0.028
